Data on 46 compounds can be found in PubChem BioAssay AID1508642 (National Center for Advancing Translational Sciences (NCATS), 2021).

Hit rate of the full screen: of about 43,000 compounds, about 200 (0.47%) were called active. Another 12% or so got no clear call; they are omitted. Calls come from the whole dose curve; as a rule, active = well fitted cell-killing curve with a large enough effect; inconclusive = small, poorly fitted or top-dose-only effect, or effect the other way; inactive = flat fitted curve, though single readings scatter. This is one part of the list.
% is set by controls: 0 for no effect and ±100 for the full control effect.

A short description of the experiment: Cell viability qHTS assay in S16 Pmp22-F2sN cells. Note: nearly all actives have a fitted effect of over 65% in size. The following applies: S16 Pmp22-F2sN Schwann cells (luciferase reporters placed in the Pmp22 gene) viability, CellTiter-Glo, 24 h; series mostly up to 57.5 µM; activity change, negative = cytotoxicity: at the top concentration. The method, boiled down:
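Seed 500-1,000 S16 Pmp22-F2sN cells per well in phenol-red-free DMEM with 10% heat-inactivated FBS; pin-add 23 nL compound; incubate 24 h at 37C; add CellTiter-Glo, wait 15 min protected from light; read luminescence.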
(qHTS replaces the single test concentration by a dilution series.)
For `CCCOc1ccc(C(=O)Nc2ccc3oc(-c4cccc(Cl)c4Cl)nc3c2)cc1`, the “activity change, negative = cytotoxicity” value was inactive: 6.36%. Consider `COC(=O)c1ccc2c(c1)N(CC(=O)Nc1ccc(OC)c(Cl)c1)C(=O)c1ccccc1S2`, for which the “activity change, negative = cytotoxicity” value is inactive: 8.82%. Next, `Cc1ccc(-n2nc3c(N4CCCC(C(=O)NCc5ccc(Cl)cc5)C4)nnc(C)c3c2C)cc1` (stereo unspecified): inactive: 8.22%; `CC(C)c1ccc(NC(=O)CSc2nc(=O)n(Cc3ccccn3)c3c2CCC3)cc1`: inactive: -1.2%. With `N#Cc1nc(COc2cccc(Cl)c2)oc1NCCc1ccccc1`, the “activity change, negative = cytotoxicity” value was inactive: -21.9%. Next, `CCOc1ccccc1C(=O)N(Cc1cc(OC)c(OC)c(OC)c1)c1ccccn1`: inactive: 13%. For `CCCn1c(SCc2nc(-c3ccccc3OCC)no2)nnc1-c1ccc(Cl)cc1`, the “activity change, negative = cytotoxicity” value was inactive: -15%.

In the case of `Cc1ccc(NC(=O)Cn2c(=O)n(Cc3nc(C)no3)c(=O)c3cc4c(cc32)OCO4)c(C)c1`, the “activity change, negative = cytotoxicity” value is inactive: -0.514%. Turning to `COc1ccc(-c2cn3nc(N4CCCC(C(=O)Nc5cccc(OC)c5)C4)sc3n2)cc1` (stereo unspecified), the “activity change, negative = cytotoxicity” value was inactive: 9.34%. Consider `CCOCCCNC(=O)c1cc(Sc2cccc(Cl)c2)nc2ccccc12`, for which the “activity change, negative = cytotoxicity” value was inactive: -1.22%.

`COc1cc2c(cc1OC)n(CC(=O)c1cccc(Cl)c1)c(=O)n1nc(CCn3nc(C)cc3C)nc21`: the “activity change, negative = cytotoxicity” value was inactive: -2.72%. Next, `Cc1ccc(CC(=O)Nc2ccc3c(c2)N(C)C(=O)c2ccccc2S3)cc1`: inactive: -25.2%; `O=C(CCN1C(=O)c2ccccc2Sc2ncccc21)Nc1ccc(F)cc1F`: inactive: 1.23%.

Consider `Cc1ccccc1C(=O)Nc1sc2c(c1C(=O)N1CCCCC1)CCC(C)C2` (stereo unspecified), for which the “activity change, negative = cytotoxicity” value was inactive: -16.6%.

On to `COc1ccc(C2NC(=O)NC(C)=C2C(=O)Nc2ccccc2)cc1OC` (stereo unspecified), for which the “activity change, negative = cytotoxicity” value was inactive: -0.185%. Next, `COc1cccc(C(=O)N2c3ccc(C)cc3C(C)(c3ccccc3)CC2(C)C)c1` (stereo unspecified): inactive: -1.13%.

On to `CCc1ccc(NC(=O)CSc2nc3c(oc4ccccc43)c(=O)n2-c2cccc(C)c2)cc1`, for which the “activity change, negative = cytotoxicity” value is inactive: 4.44%. For the compound `CCc1cccc(CC)c1NC(=O)C(Cc1ccccc1)NS(=O)(=O)c1cccc2nsnc12` (stereo unspecified), the “activity change, negative = cytotoxicity” value is inactive: -1.33%. Turning to `COc1ccc(NC(=O)c2oc3ccccc3c2NC(=O)C23CC4CC(CC(C4)C2)C3)c(OC)c1`, the “activity change, negative = cytotoxicity” value was inactive: 17.4%.

Take `COc1ccc(S(=O)(=O)NCCS(=O)(=O)N2CCN(c3ccccc3)CC2)cc1OC`: the “activity change, negative = cytotoxicity” value is inactive: -1.21%. Next, `Cc1ccc(NC(=O)c2oc3ccccc3c2NC(=O)c2ccc(F)c(F)c2)cc1`: inactive: 12.3%. Take `CN1CCc2c(sc(NC(=O)CSc3ccc(F)cc3)c2-c2nc3ccccc3s2)C1`: the “activity change, negative = cytotoxicity” value was inactive: 3.15%. In the case of `CCN1C(C(=O)c2ccccc2)=C(OC(=O)COc2ccc(OC)cc2)c2ccccc2S1(=O)=O`, the “activity change, negative = cytotoxicity” value is inactive: -17.1%. `Cc1ccc(CNC(=O)CCCCCn2c(=O)c3sccc3n(CC(=O)Nc3ccc(C)c(F)c3)c2=O)cc1`: the “activity change, negative = cytotoxicity” value was inactive: 18.8%. `CC(C)CN(CCCNC(=O)c1cc(=O)[nH]c2ccc(S(=O)(=O)N3CCCC3)cc12)CC(C)C`: the “activity change, negative = cytotoxicity” value was inactive: 7.4%. Take `CCc1cnc2c(c1SCc1ccccc1C)c(=O)n(C)c(=O)n2C`: the “activity change, negative = cytotoxicity” value is inactive: 4.18%. Next, `Cc1ccc2cccc(NC(=O)c3cccc4c(Cl)cccc34)c2n1`: inactive: -4.46%; `O=C(C1CCC(Cn2c(=O)c3sccc3n(Cc3ccccc3)c2=O)CC1)N1CCCCC1` (stereo unspecified): inactive: -9.24%; `Cc1ccc(C)c(N2CCN(C(=O)CCNS(=O)(=O)c3ccc4c(c3)CCN4C(=O)C3CC3)CC2)c1`: inactive: -18.1%. For the compound `CCN(Cc1ccccc1)Cc1c(O)ccc2c(=O)c(-c3ccc(Cl)cc3)coc12`, the “activity change, negative = cytotoxicity” value was inactive: 2.71%. For the compound `O=C(NCc1ccccc1Cl)c1cnc(N2CCOCC2)c2ccccc12`, the “activity change, negative = cytotoxicity” value is inactive: 7.17%. For `Cc1ccc(-c2cc(-c3coc4ccc(Cl)cc4c3=O)c3c(n2)-c2ccccc2OC3)cc1`, the “activity change, negative = cytotoxicity” value was inactive: 20%. Consider `COc1ccc(OC)c(NC(=O)CC2C(=O)NCCN2C(=O)C(F)(F)F)c1` (stereo unspecified), for which the “activity change, negative = cytotoxicity” value was inactive: -1.31%. Take `CCOc1ccc(NC(=O)CCc2nc3cccnc3n2-c2ccccc2)cc1`: the “activity change, negative = cytotoxicity” value was inactive: -0.162%. As for `Cc1cc(C)c(NS(=O)(=O)c2cc(-c3onc(C)c3C)ccc2C)c(C)c1`, the “activity change, negative = cytotoxicity” value is inactive: 1.3%. Take `CC1CCN(C(=O)c2ccc3c(c2)N(Cc2ccccc2)C(=O)c2ccccc2S3(=O)=O)CC1`: the “activity change, negative = cytotoxicity” value was inactive: -4.62%.

For the compound `O=C(CSc1oc(-c2ccccc2)nc1S(=O)(=O)c1ccc(Cl)cc1)NC1CCCCC1`, the “activity change, negative = cytotoxicity” value was inactive: -8.32%.

In the case of `COc1ccc(-n2nnc(-c3nsc(NC(=O)c4ccc(C)c(C)c4)n3)c2C)cc1Cl`, the “activity change, negative = cytotoxicity” value is inactive: -13%. For `CC(C)COC(=O)Cn1nnc2sc(-c3ccccc3)cc2c1=O`, the “activity change, negative = cytotoxicity” value was inactive: 15.8%. Regarding `COCCCNC(=O)CSc1nc2cc3c(cc2c(=O)n1CCCCCC(=O)NCc1ccc(OC)cc1)OCO3`, the “activity change, negative = cytotoxicity” value was inactive: 4.3%. Turning to `COc1ccc(NC(=O)Cn2nnc(C(=O)NCc3ccc4c(c3)OCO4)c2N)cc1`, the “activity change, negative = cytotoxicity” value was inactive: 0.022%. On to `Cc1cccc(N2CCN(C(=O)c3ccc4c(Cl)c5c(nc4c3)CCCC5)CC2C)c1` (stereo unspecified), for which the “activity change, negative = cytotoxicity” value is inactive: 8.29%. In the case of `O=C(Nc1cccc(C(F)(F)F)c1)c1cc(S(=O)(=O)N2CCCC2)c[nH]1`, the “activity change, negative = cytotoxicity” value is inactive: 0.369%. As for `COc1ccccc1-c1noc(-c2ccc(NCc3ccco3)c([N+](=O)[O-])c2)n1`, the “activity change, negative = cytotoxicity” value is inactive: -16.7%. For `COc1ccc(NC(=O)Cn2c(=O)c3cc(Cl)ccc3n3nncc23)cc1`, the “activity change, negative = cytotoxicity” value was inactive: 1.4%. For `CCOc1ccc(C(=O)c2cn(CC(=O)Nc3ccc4c(c3)OCCO4)c3ccc(F)cc3c2=O)cc1`, the “activity change, negative = cytotoxicity” value was inactive: 9.89%.
